Reference: the supplement of paper PMC3334620
Whole data set: some 33,000 sequences, median “E-score (-0.5 to 0.5)” near -0.013, cut for the highest 2% near 0.3. This is one part of the list.

target: T1, Msn1 (UniProt P22148); experiment: PBM E-score (8-mer binding enrichment) (E-score (-0.5 to 0.5)); higher = stronger / more preferred TF binding; most listed sequences are background and not binding sites; conditions: protein concentration: 200 nM; construct: GST-full length
T1 sequence: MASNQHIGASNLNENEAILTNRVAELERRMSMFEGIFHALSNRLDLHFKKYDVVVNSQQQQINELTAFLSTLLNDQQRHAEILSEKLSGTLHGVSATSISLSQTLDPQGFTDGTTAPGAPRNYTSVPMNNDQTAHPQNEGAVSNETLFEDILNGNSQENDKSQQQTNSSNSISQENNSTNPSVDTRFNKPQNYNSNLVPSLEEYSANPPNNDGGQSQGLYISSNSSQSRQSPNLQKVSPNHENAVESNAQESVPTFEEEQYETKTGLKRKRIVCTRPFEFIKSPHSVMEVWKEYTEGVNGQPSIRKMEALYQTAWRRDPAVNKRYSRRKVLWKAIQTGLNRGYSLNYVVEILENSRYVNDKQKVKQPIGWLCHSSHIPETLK
Summary of the method: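 Universal all-10-mer Agilent arrays, fresh or stripped once, were converted to double-stranded form by primer extension. GST-tagged yeast transcription factors from PURExpress in vitro transcription/translation, full-length or DNA-binding domain only, were applied at about 100-200 nM and detected with fluorescent anti-GST. After masliner normalisation, the Universal PBM Analysis Suite scored each ungapped eight-base word together with its reverse complement by E-score.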

Sequence | PBM E-score
CGCGAGTA | 0.0691
ACGGAGGA | 0.162
CCACATTA | -0.107
AACGACGG | 0.0999
CATTGTGA | -0.0194
CCAGGGGC | -0.38
CTCCCCCA | -0.283
CTCACCTC | -0.138
GGCCTCAC | -0.249
AAACTGTG | 0.00536
GATGACAA | 0.336
AGGCGCTC | -0.0585
GCGAACAC | -0.039
CCTTGCAG | -0.069
TAACTCAA | -0.0662
ATCTGCTG | -0.0193
ATATGCGA | 0.022
ATACGACA | 0.133
ATAAGAAT | 0.276
AAAGGCCA | -0.124
AGCAACGC | -0.00325
ACATTACA | 0.175
ACCAGTAA | 0.131
AAAGCTAT | -0.0425
AATGCACC | -0.00375

Sequence | PBM E-score
CATAGAGC | -0.151
CTGGAAGC | -0.225
AATTAACC | 0.0922
GAACGCCA | -0.0198
ACCCGGTA | 0.0382
TGCTTGAA | 0.0568
CAAGTGAC | 0.0168
CTGAGGTC | -0.114
CTGGGTTA | -0.0533
GAGGTTCC | -0.0957
CCTCTTGC | -0.252
ACTGACTC | -0.0109
GATCCATA | 0.0478
AGCCAAAG | 0.0256
CGTGCAGA | -0.126
CCGTGTGA | 0.0457
AATTAAGG | 0.00385
CATTCGAG | 0.00844
TCTCGGAA | 0.292
AAATGTGC | 0.143
GGCTCCGA | -0.0526
TGCGACCA | 0.0994
CAGGGAAC | 0.00069
AATTCAGT | -0.0391
AATACGCT | -0.0358

Sequence | PBM E-score
AAGAACCA | 0.0199
ACATGAAA | 0.0293
CATATGGC | 0.189
CAGATGGC | -0.018
GGTCACTA | -0.135
GTTGGTGA | 0.126
ATTTGAGG | -0.0224
AATTACAT | 0.178
CGGGACAA | 0.463
ATCGGTCG | 0.0272
AACGCAAC | 0.0985
ACTAATAT | 0.225
GTAAATGA | 0.00128
AAAGCTCG | -0.00694
GGTCTACA | -0.069
GATGTAGA | 0.144
ATTCGGAC | 0.339
GGCACCAA | -0.0664
CGCAACCA | -0.109
CAACGCTA | -0.098
CTTTGGGC | 0.0389
ACGAATGG | 0.141
AATGCGCT | -0.0183
CGACGGTA | 0.139
CATTGCAG | 0.00855

Sequence | PBM E-score
CCAGAGAC | -0.0226
AGTTGACC | -0.00887
GATTTCTA | -0.00849
GCTAACCC | -0.226
CCCAGCAA | -0.044
GTCAAGGA | -0.035
CGAGAGGA | -0.0902
ATAGCTAG | -0.166
GAAGAACA | 0.236
ACAGGAAG | 0.0949
AAACCTAA | 0.0477
AACGAATT | 0.0856
GAAGATTA | 0.0384
TCATCACA | -0.0798
ACACAGCT | 0.0696
TAGGTGCA | -0.16
CCAACAAA | -0.0326
AGATGGAC | 0.234
GTCGATAA | 0.0533
CAACTTGA | 0.1
ATGGGGGA | -0.338
AAAGAAGT | 0.0817
ACTGAGCA | -0.16
ACGCACGG | -0.0172
CAGGTGCC | -0.201

Sequence | PBM E-score
GACTCATC | -0.0489
ATTCGGTA | 0.182
TAGGGACA | 0.484
GGAAGAAA | -0.0198
AAGAAGGG | -0.197
GCCAGGAC | 0.212
AGTTTGGA | 0.112
AAAATATA | 0.246
ATGCAAGG | -0.296
CCCTTTGA | -0.268
AAACCTAG | -0.0327
GCAGCCCA | -0.0983
GCCGCACA | -0.0234
ATATAACC | -0.0107
CTATAAAG | -0.13
GATTTGCC | 0.0882
AAGTTCAA | 0.0772
AATCTCCC | -0.221
TCAACTCA | -0.00767
GAGCCAAA | 0.0165
AATCAGGT | 0.0584
AGCTACCA | -0.12
AAACAGGT | -0.144
CAATTAAG | 0.107
AGCTGTTC | -0.13

Sequence | PBM E-score
CTGTGGCC | -0.297
GACCGTGA | -0.0454
CACCCATC | -0.0828
AAAGCAAA | 0.112
CCTGGCCC | -0.306
CTCAATCA | -0.0211
AATCTGCT | 0.0105
AGGTTGCC | -0.18
AGGCACCT | -0.167
CTAAGTAA | 0.00474
ACGTAACG | 0.0298
CTCCGTCA | -0.128
AGTGGGTC | -0.35
AGCGCAAG | -0.0435
AAAATGAT | 0.227
TAATGATA | 0.0644
GGTGCCAC | -0.122
CGCTGCGA | 0.0869
CTTTCCCA | -0.0983
ACGCTCTA | -0.242
CCGTTACG | -0.0788
GACGAGTC | 0.0672
AGCGTAAC | 0.0686
AAAGTTGG | 0.0281
AGCCAACT | -0.194

Sequence | PBM E-score
GAGCGTAA | -0.0204
ACGCCGAT | -0.0633
GGAAGACC | -0.218
AACTGATT | 0.0951
CACATAAG | -0.0961
GCAAAGGC | -0.262
ATTAGAAA | 0.0845
CACCGGGA | -0.178
AGTATACT | -0.307
CCGCCCTA | -0.144
AATACGAA | 0.0224
CATTTAGC | -0.108
GTAGAAGA | -0.0168
CACAACCC | -0.139
GAAGAGAC | 0.16
AACAGCTA | -0.0494
AGCGTGCG | -0.0744
CCATATAA | 0.124
ATAAAAGC | 0.0126
GATGAGGC | -0.314
AGTGGTTC | -0.131
TTACCAAA | -0.064
